Ki data for 20 compounds are collected here from patent US7595299B2, “Peptides as NS3-serine protease inhibitors of hepatitis C virus” (priority 2000, dated 2009).

As a reminder, the Ki is the dissociation constant of the complex between target and ligand, obtained from inhibition or displacement.

Structures are written as SMILES. Where two headings read alike, the source gives them in different places. Starred links: 1 amine or outer side, 2 acyl side, 3 side chain; linkers in the order of their positions; H or OH if unused. Non-standard residues stand in square brackets, D forms with d. Residues, ends and D or L forms follow the SMILES beside them. ξ: configuration not given here. *: point of attachment. Isobutyloxycarbonyl = CC(C)COC(=O)*; X2 = O=C(C(=O)[*:2])C(CC1CC1)N[*:1]; NMeAla(cPr) = CN[CH](CC1CC1)C(=O)O; NMeF = CN[C@@H](Cc1ccccc1)C(=O)O; X4 = CCCC(N[*:1])C(=O)C(=O)[*:2]; Ala(cPr) = N[CH](CC1CC1)C(=O)O; NMeL = CN[C@@H](CC(C)C)C(=O)O; Chg = N[CH](C(=O)O)C1CCCCC1; Salicyloyl = O=C(c1ccccc1O)*; Tle = CC(C)(C)[C@H](N)C(=O)O; ξAla(cPr) = NC(CC1CC1)C(=O)O; Phg = N[CH](C(=O)O)c1ccccc1; X27 = CC(C)(C)C#CCOC(=O)*; ξPhg = NC(C(=O)O)c1ccccc1; PhAc = O=C(Cc1ccccc1)*; N(Me)OMe = CON(C)*; NHtBu = CC(C)(C)N*; X20 = CC#CCOC(=O)*; OtBu = CC(C)(C)O*; X15 = C#CCOC(=O)* Bounds are passed on as bounds.

The target of this assay is Recombinant heterodimeric HCV NS3/NS4A protease (strain 1a) (Hepatitis C virus genotype 1a, UniProt P27958). The assay can be described thus: biochemical.
Setting [1] is: HCV protease continuous assay, Table 1, read-out: Ki* Range.

Regarding `CONC(=O)C(NC(=O)CNC(=O)C(=O)C(CC1CC1)NC(=O)C(CC1CC1)NC(=O)C(NC(=O)OCC(C)C)C1CCCCC1)c1ccccc1` (centres unmarked) [Example 114], the Ki under setting [1] was below 100 nM.
Still for that read-out and setting: for `CC(C)COC(=O)NC(C(=O)N(C)C(CC1CC1)C(=O)NC(CC1CC1)C(=O)C(=O)NCC(=O)NC(C(=O)OC(C)(C)C)c1ccccc1)C1CCCCC1` (centres unmarked) [Example 115] (Isobutyloxycarbonyl-[Chg][NMeAla(cPr)][X2]G[Phg]-OtBu; configuration not given here) the value was above 1000 nM.
Regarding `CC(C)COC(=O)NC(C(=O)N(C)C(CC1CC1)C(=O)NC(CC1CC1)C(=O)C(=O)NCC(=O)NC(C(=O)O)c1ccccc1)C1CCCCC1` (centres unmarked) [Example 116] (Isobutyloxycarbonyl-[Chg][NMeAla(cPr)][X2]G[Phg]-OH; configuration not given here), the Ki fell in the range of 101 to 1000 nM.
As to `CC(C)COC(=O)NC(C(=O)N(C)C(CC1CC1)C(=O)NC(CC1CC1)C(=O)C(=O)NCC(=O)NC(C(=O)N(C)C)c1ccccc1)C1CCCCC1` (centres unmarked) [Example 117] (Isobutyloxycarbonyl-[Chg][NMeAla(cPr)][X2]G[Phg]-NMe2; configuration not given here), the Ki under setting [1] lay within 101 to 1000 nM.
For `CC(C)COC(=O)NC(C(=O)NC(CC1CC1)C(=O)NC(CC1CC1)C(=O)C(=O)NCC(=O)NC(C(=O)NC(C)(C)C)c1ccccc1)C1CCCCC1` (centres unmarked) [Example 118] (Isobutyloxycarbonyl-[Chg][Ala(cPr)][X2]G[Phg]-NHtBu; configuration not given here), under setting [1], the Ki lay within 101 to 1000 nM.
With `CON(C)C(=O)C(NC(=O)CNC(=O)C(=O)C(CC1CC1)NC(=O)C(CC1CC1)N(C)C(=O)C(NC(=O)OCC(C)C)C1CCCCC1)c1ccccc1` (centres unmarked) [Example 119] (Isobutyloxycarbonyl-[Chg][NMeAla(cPr)][X2]G[Phg]-{N(Me)OMe}; configuration not given here), under setting [1], the Ki is 101 to 1000 nM.
Same read-out and setting: to `CC(C)COC(=O)NC(C(=O)NC(CC1CC1)C(=O)NC(CC1CC1)C(=O)C(=O)NCC(=O)NC(C(=O)N(C)C)c1ccccc1)C1CCCCC1` (centres unmarked) [Example 120] (Isobutyloxycarbonyl-[Chg][Ala(cPr)][X2]G[Phg]-NMe2; configuration not given here) belongs below 100 nM; to `CC(C)COC(=O)N[C@H](C(=O)NC(CC1CC1)C(=O)NC(CC1CC1)C(=O)C(=O)NCC(=O)NC(C(=O)OC(C)(C)C)c1ccccc1)C(C)(C)C` (some centres unmarked) [Example 121] (Isobutyloxycarbonyl-[Tle][ξAla(cPr)][X2]G[ξPhg]-OtBu), 101 to 1000 nM.
As to `CC(C)COC(=O)N[C@H](C(=O)NC(CC1CC1)C(=O)NC(CC1CC1)C(=O)C(=O)NCC(=O)NC(C(=O)O)c1ccccc1)C(C)(C)C` (some centres unmarked) [Example 122] (Isobutyloxycarbonyl-[Tle][ξAla(cPr)][X2]G[ξPhg]-OH), the Ki under setting [1] was below 100 nM.
Still for that read-out and setting: to `CC#CCOC(=O)NC(C(=O)NC(CC1CC1)C(=O)NC(CC1CC1)C(=O)C(=O)NCC(=O)NC(C(=O)OC(C)(C)C)c1ccccc1)C1CCCCC1` (centres unmarked) [Example 123] (X20-[Chg][Ala(cPr)][X2]G[Phg]-OtBu; configuration not given here) belongs above 1000 nM.
On the same count and under the same terms, for `C#CCOC(=O)NC(C(=O)NC(CC1CC1)C(=O)NC(CC1CC1)C(=O)C(=O)NCC(=O)NC(C(=O)OC(C)(C)C)c1ccccc1)C1CCCCC1` (centres unmarked) [Example 124] (X15-[Chg][Ala(cPr)][X2]G[Phg]-OtBu; configuration not given here) the value was 101 to 1000 nM; for `CC(C)(C)C#CCOC(=O)NC(C(=O)NC(CC1CC1)C(=O)NC(CC1CC1)C(=O)C(=O)NCC(=O)NC(C(=O)O)c1ccccc1)C1CCCCC1` (centres unmarked) [Example 125] (X27-[Chg][Ala(cPr)][X2]G[Phg]-OH; configuration not given here), below 100 nM.
Still for that read-out and setting: for `C#CCOC(=O)NC(C(=O)NC(CC1CC1)C(=O)NC(CC1CC1)C(=O)C(=O)NCC(=O)NC(C(=O)O)c1ccccc1)C1CCCCC1` (centres unmarked) [Example 126] (X15-[Chg][Ala(cPr)][X2]G[Phg]-OH; configuration not given here) the value was below 100 nM.
Take `CC#CCOC(=O)NC(C(=O)NC(CC1CC1)C(=O)NC(CC1CC1)C(=O)C(=O)NCC(=O)NC(C(=O)O)c1ccccc1)C1CCCCC1` (centres unmarked) [Example 127] (X20-[Chg][Ala(cPr)][X2]G[Phg]-OH; configuration not given here): the Ki under setting [1] is below 100 nM.
Still for that read-out and setting: to `CCCC(NC(=O)[C@H](CC(C)C)N(C)C(=O)[C@@H](NC(=O)OCC(C)C)C1CCCCC1)C(=O)C(=O)NCC(=O)NC(C(=O)N(C)C)c1ccccc1` (some centres unmarked) [Example 128] (Isobutyloxycarbonyl-[Chg][NMeL][X4]G[ξPhg]-NMe2) belongs 101 to 1000 nM; to `CCCC(NC(=O)[C@H](Cc1ccccc1)N(C)C(=O)[C@@H](NC(=O)OCC(C)C)C1CCCCC1)C(=O)C(=O)NCC(=O)NC(C(=O)N(C)C)c1ccccc1` (some centres unmarked) [Example 129] (Isobutyloxycarbonyl-[Chg][NMeF][X4]G[ξPhg]-NMe2), above 1000 nM.
On to `CC(C)COC(=O)N[C@H](C(=O)NC(CC1CC1)C(=O)NC(CC1CC1)C(=O)C(=O)NCC(=O)NC(C(=O)N(C)C)c1ccccc1)C(C)(C)C` (some centres unmarked) [Example 130] (Isobutyloxycarbonyl-[Tle][ξAla(cPr)][X2]G[ξPhg]-NMe2), for which, under setting [1], the inhibition constant Ki was below 100 nM.
As for `CC(C)(C)OC(=O)C(NC(=O)CNC(=O)C(=O)C(CC1CC1)NC(=O)C(CC1CC1)NC(=O)C(NC(=O)Cc1ccccc1)C1CCCCC1)c1ccccc1` (centres unmarked) [Example 131] (PhAc-[Chg][Ala(cPr)][X2]G[Phg]-OtBu; configuration not given here), the Ki is above 1000 nM.
In the case of `O=C(CNC(=O)C(=O)C(CC1CC1)NC(=O)C(CC1CC1)NC(=O)C(NC(=O)Cc1ccccc1)C1CCCCC1)NC(C(=O)O)c1ccccc1` (centres unmarked) [Example 132] (PhAc-[Chg][Ala(cPr)][X2]G[Phg]-OH; configuration not given here), the Ki under setting [1] lay in the range of 101 to 1000 nM.
Turning to `CC(C)(C)OC(=O)C(NC(=O)CNC(=O)C(=O)C(CC1CC1)NC(=O)C(CC1CC1)NC(=O)C(NC(=O)c1ccccc1O)C1CCCCC1)c1ccccc1` (centres unmarked) [Example 133] (Salicyloyl-[Chg][Ala(cPr)][X2]G[Phg]-OtBu; configuration not given here), the Ki fell in the range of 101 to 1000 nM.
